According to the supplement of paper PMC4967469:
The IC50 comes from the fitted curve, where viability falls to half of the control; fits outside the tested doses are given as limits. For AUC the same curve is integrated over the 256-fold range of doses and scaled to a fraction; the more sensitive the line, the further below 1. For some of these results: Where the top dose is marked as inferred, it comes from the curve model; the source does not state it. For some of these results: Where an entry number is given, a second screen of the drug exists; the two often differ.

Key:
Test in all cases: Viability of human cancer cell lines after 72 h of drug (GDSC screen)
BX-912 = compound: O=C(Nc1cccc(Nc2ncc(Br)c(NCCc3cnc[nH]3)n2)c1)N1CCCC1 [BX-912]; conditions: top dose 10.24 µM; top dose inferred
Protocol: (§1)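 Human cancer cell lines in 384-well plates, medium with 10% serum, drug for 72 h over a 256-fold dose range (nine 2-fold or five 4-fold steps up to the top dose). Adherent lines were fixed and stained with the nucleic acid dye Syto60, suspension lines read with resazurin; signal relative to control wells, capped at 0 and 100%. One two-parameter sigmoid per drug and line, fitted in a mixed model over all curves with the slope shared within a line.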

Bleomycin = compound: Cc1c(N)nc([C@H](CC(N)=O)NC[C@H](N)C(N)=O)nc1C(=O)N[C@H](C(=O)N[C@H](C)[C@@H](O)[C@H](C)C(=O)N[C@H](C(=O)NCCc1nc(-c2nc(C(=O)NCCC[S+](C)C)cs2)cs1)[C@@H](C)O)[C@@H](OC1OC(CO)C(O)C(O)C1OC1OC(CO)C(O)C(OC(N)=O)C1O)c1cnc[nH]1 [Bleomycin]
Protocol: as §1

Elesclomol = compound: CN(NC(=O)CC(=O)NN(C)C(=S)c1ccccc1)C(=S)c1ccccc1 [Elesclomol]; conditions: top dose 0.2 µM; top dose inferred
Protocol: as §1

VNLG/124 = compound: CCCC(=O)OCc1ccc(OC(=O)/C=C(C)/C=C/C=C(C)/C=C/C2=C(C)CCCC2(C)C)cc1 [VNLG/124]; conditions: top dose 5.12 µM; top dose inferred
Protocol: as §1

NSC-87877 = compound: O=S(=O)(O)c1ccc2cc(N=Nc3cc(S(=O)(=O)O)c4cccnc4c3O)ccc2c1 [NSC-87877]; conditions: top dose 16 µM; top dose inferred
Protocol: as §1

OSI-930 = compound: O=C(Nc1ccc(OC(F)(F)F)cc1)c1sccc1NCc1ccnc2ccccc12 [OSI-930]; conditions: top dose 10.24 µM
Protocol: as §1

Tamoxifen = compound: CC/C(=C(\c1ccccc1)c1ccc(OCCN(C)C)cc1)c1ccccc1 [Tamoxifen]; conditions: top dose 5 µM
Protocol: as §1

LAQ824 = compound: O=C(/C=C/c1ccc(CN(CCO)CCc2c[nH]c3ccccc23)cc1)NO [LAQ824]; conditions: top dose 1.024 µM; top dose inferred
Protocol: as §1

Masitinib = compound: Cc1ccc(NC(=O)c2ccc(CN3CCN(C)CC3)cc2)cc1Nc1nc(-c2cccnc2)cs1 [Masitinib]; conditions: top dose 20 µM
Protocol: as §1

[1] = top dose 50 µM, screen: GDSC drug entry 1378, top dose inferred
[2] = top dose 64 µM, screen: GDSC drug entry 190

Cell Line	AUC (BX-912)	IC50 (BX-912)	AUC (Bleomycin; [1])	IC50 (Bleomycin; [1])	AUC (Bleomycin; [2])	IC50 (Bleomycin; [2])	AUC (Elesclomol)	IC50 (Elesclomol)	AUC (VNLG/124)	IC50 (VNLG/124)	AUC (NSC-87877)	IC50 (NSC-87877)	AUC (OSI-930)	IC50 (OSI-930)	AUC (Tamoxifen)	IC50 (Tamoxifen)	AUC (LAQ824)	IC50 (LAQ824)	AUC (Masitinib)	IC50 (Masitinib)
NCI-H1435 (lung adenocarcinoma, semi-adherent)	0.992	> 10.2 µM	0.958	> 50 µM	0.445	2.88 µM	0.972	> 0.2 µM	0.992	> 5.12 µM	0.993	> 16 µM	0.991	> 10.2 µM	0.992	> 5 µM	0.597	0.114 µM	0.971	> 20 µM
H3255 (lung adenocarcinoma, adherent)	0.945	> 10.2 µM	0.828	39.2 µM	0.9	> 64 µM	0.862	> 0.2 µM	0.981	> 5.12 µM	0.963	> 16 µM	0.977	> 10.2 µM	0.981	> 5 µM	0.563	0.0986 µM	0.965	> 20 µM
NCI-H209 (small cell lung carcinoma, suspension)	0.728	3 µM	0.777	21.6 µM	0.789	30.5 µM	0.91	> 0.2 µM	0.982	> 5.12 µM	0.962	> 16 µM	0.986	> 10.2 µM	0.977	> 5 µM	0.386	0.0304 µM	0.946	> 20 µM
RH-41 (rhabdomyosarcoma, adherent)	0.584	1.04 µM	0.902	46.3 µM	0.969	> 64 µM	0.264	0.00305 µM	0.98	> 5.12 µM	0.982	> 16 µM	0.985	> 10.2 µM	0.992	> 5 µM	0.479	0.0568 µM	0.898	17.8 µM
HT-3 (cervix, adherent)	0.96	> 10.2 µM	0.269	0.678 µM			0.847	0.15 µM	0.978	> 5.12 µM	0.916	> 16 µM	0.983	> 10.2 µM	0.976	> 5 µM	0.624	0.141 µM	0.963	> 20 µM
JiyoyeP-2003 (Burkitt lymphoma, suspension)	0.981	> 10.2 µM	0.796	20.2 µM	0.484	3.65 µM	0.657	0.032 µM	0.952	> 5.12 µM	0.984	> 16 µM	0.979	> 10.2 µM	0.984	> 5 µM	0.428	0.0416 µM	0.909	> 20 µM
EGI-1 (biliary tract, adherent)	0.954	> 10.2 µM	0.726	17 µM	0.338	1.23 µM	0.462	0.00952 µM	0.978	> 5.12 µM	0.94	> 16 µM	0.971	> 10.2 µM	0.98	> 5 µM	0.515	0.0711 µM	0.942	> 20 µM
SW13 (adrenal gland, adherent)	0.988	> 10.2 µM	0.283	0.751 µM	0.087	< 0.25 µM	0.422	0.00763 µM	0.988	> 5.12 µM	0.972	> 16 µM	0.984	> 10.2 µM	0.971	> 5 µM	0.464	0.0511 µM	0.979	> 20 µM
NCI-H69 (small cell lung carcinoma, suspension)	0.789	5.1 µM	0.537	4 µM	0.827	45.2 µM	0.919	> 0.2 µM	0.985	> 5.12 µM	0.983	> 16 µM	0.978	> 10.2 µM	0.952	> 5 µM	0.5	0.0641 µM	0.926	> 20 µM
ECC10 (stomach, suspension)	0.78	4.41 µM	0.877	> 50 µM	0.523	4.62 µM	0.496	0.0122 µM	0.961	> 5.12 µM	0.97	> 16 µM	0.968	> 10.2 µM	0.956	> 5 µM	0.334	0.0216 µM	0.868	19.6 µM
OAW-42 (ovary, adherent)	0.863	10.2 µM	0.751	17.7 µM	0.201	0.477 µM	0.756	0.0737 µM	0.975	> 5.12 µM	0.92	> 16 µM	0.947	> 10.2 µM	0.943	> 5 µM	0.414	0.0365 µM	0.969	> 20 µM
CHL-1 (melanoma, adherent)	0.932	> 10.2 µM	0.641	7.48 µM	0.236	0.729 µM	0.317	0.00397 µM	0.979	> 5.12 µM	0.961	> 16 µM	0.961	> 10.2 µM	0.981	> 5 µM	0.246	0.0125 µM	0.938	> 20 µM
BE2-M17 (neuroblastoma, adherent)	0.903	> 10.2 µM	0.909	> 50 µM	0.918	> 64 µM	0.736	0.0602 µM	0.982	> 5.12 µM	0.982	> 16 µM	0.951	> 10.2 µM	0.975	> 5 µM	0.463	0.0506 µM	0.919	> 20 µM
MHH-PREB-1 (B-cell leukaemia, suspension)	0.961	> 10.2 µM	0.915	> 50 µM	0.898	> 64 µM	0.579	0.0201 µM	0.969	> 5.12 µM	0.981	> 16 µM	0.962	> 10.2 µM	0.932	> 5 µM	0.343	0.0247 µM	0.882	17.3 µM
NCI-H2227 (small cell lung carcinoma, semi-adherent)	0.222	0.0867 µM	0.854	47.8 µM	0.945	> 64 µM	0.859	> 0.2 µM	0.92	> 5.12 µM	0.958	> 16 µM	0.977	> 10.2 µM	0.968	> 5 µM	0.785	0.5 µM	0.899	> 20 µM
647-V (bladder, adherent)	0.951	> 10.2 µM	0.525	3.65 µM	0.373	1.79 µM	0.425	0.00778 µM	0.979	> 5.12 µM	0.987	> 16 µM	0.972	> 10.2 µM	0.968	> 5 µM	0.499	0.0637 µM	0.981	> 20 µM
MEL-JUSO (melanoma, adherent)	0.813	6.38 µM	0.468	2.53 µM	0.095	< 0.25 µM	0.485	0.0113 µM	0.981	> 5.12 µM	0.96	> 16 µM	0.956	> 10.2 µM	0.978	> 5 µM	0.435	0.0416 µM	0.852	18.3 µM
Daoy (medulloblastoma, adherent)	0.92	> 10.2 µM	0.247	0.639 µM	0.109	0.255 µM	0.578	0.02 µM	0.987	> 5.12 µM	0.975	> 16 µM	0.916	> 10.2 µM	0.988	> 5 µM	0.254	0.0137 µM	0.887	18.7 µM
SW780 (bladder, adherent)	0.934	> 10.2 µM	0.36	1.23 µM	0.985	> 64 µM	0.634		0.978	> 5.12 µM	0.986	> 16 µM	0.975	> 10.2 µM	0.935	> 5 µM	0.823	0.679 µM	0.979	> 20 µM
ARH-77 (myeloma, suspension)	0.754	3.34 µM	0.635	7.26 µM	0.255	0.819 µM	0.947	> 0.2 µM	0.946	> 5.12 µM	0.988	> 16 µM	0.934	> 10.2 µM	0.974	> 5 µM	0.304	0.0184 µM	0.871	17.7 µM
KARPAS-45 (lymphoblastic leukaemia, suspension)	0.203	0.104 µM	0.977	> 50 µM	0.894	54.1 µM	0.774	0.0658 µM	0.978	> 5.12 µM	0.986	> 16 µM	0.913	> 10.2 µM	0.988	> 5 µM	0.177	0.0086 µM	0.818	8.97 µM
COLO-824 (breast, adherent)	0.881	> 10.2 µM	0.832	32.7 µM	0.836	43.7 µM	0.731	0.0578 µM	0.983	> 5.12 µM	0.987	> 16 µM	0.929	> 10.2 µM	0.982	> 5 µM	0.588	0.112 µM	0.903	> 20 µM
MC-IXC (neuroblastoma, adherent)	0.841	4.53 µM	0.517	3.44 µM	0.459	3.18 µM	0.436	0.00877 µM	0.996	> 5.12 µM	0.991	> 16 µM	0.99	> 10.2 µM	0.996	> 5 µM	0.423	0.0417 µM	0.91	14.5 µM
GMS-10 (glioma, adherent)	0.951	> 10.2 µM	0.381	1.48 µM	0.977	> 64 µM	0.804	0.0994 µM	0.984	> 5.12 µM	0.969	> 16 µM	0.983	> 10.2 µM	0.987	> 5 µM	0.802	0.498 µM	0.876	19.6 µM
G-361 (melanoma, adherent)	0.934	> 10.2 µM	0.704	11.4 µM	0.115	< 0.25 µM	0.442	0.00876 µM	0.98	> 5.12 µM	0.988	> 16 µM	0.951	> 10.2 µM	0.979	> 5 µM	0.228	0.0108 µM	0.866	16.7 µM
CAL-29 (bladder, adherent)	0.978	> 10.2 µM	0.215	0.422 µM	0.743	21.2 µM	0.331	0.00407 µM	0.985	> 5.12 µM	0.979	> 16 µM	0.981	> 10.2 µM	0.953	> 5 µM	0.501	0.0643 µM	0.924	> 20 µM
